# Data reported in PubChem BioAssay AID588342 (National Center for Advancing Translational Sciences (NCATS), 2011).
# Screen size: about 360,000 compounds; about 25,000 (6.9%) were called active. The inconclusive results got no clear call from the source; some entries with a clear call stand among them for comparison. The call rests on the fitted dose curve; in most records, active means well fitted inhibition curve with a large enough effect; inconclusive means small, poorly fitted or top-dose-only effect; inactive means flat fitted curve, though single readings scatter. Where the call is inconclusive, the potency comes from a doubtful curve fit.
# Target: Luciferin 4-monooxygenase (Photinus pyralis) (UniProt P08659)
# Assay: qHTS profiling assay for firefly luciferase inhibitor/activator using purifed enzyme and Km concentrations of substrates (counterscreen for miR-21 project); further: nearly all actives have a fitted effect of over 55% in size
# Settings: purified FLuc, luminescence inhibition; series mostly up to 57.5 µM
# How it was run: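 Biochemical qHTS of compounds, final roughly 60 µM downward over six points, against 10 nM purified firefly luciferase using Km concentrations of substrates (10 uM D-luciferin, 10 uM ATP) in Tris acetate pH 7.5 buffer; luminescence output.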
# Potency means the concentration at half of the fitted maximal effect; tags describe the fitted curve by direction and shape.
# Chain of UniProt P08659 (P08659 whole entry, looked up): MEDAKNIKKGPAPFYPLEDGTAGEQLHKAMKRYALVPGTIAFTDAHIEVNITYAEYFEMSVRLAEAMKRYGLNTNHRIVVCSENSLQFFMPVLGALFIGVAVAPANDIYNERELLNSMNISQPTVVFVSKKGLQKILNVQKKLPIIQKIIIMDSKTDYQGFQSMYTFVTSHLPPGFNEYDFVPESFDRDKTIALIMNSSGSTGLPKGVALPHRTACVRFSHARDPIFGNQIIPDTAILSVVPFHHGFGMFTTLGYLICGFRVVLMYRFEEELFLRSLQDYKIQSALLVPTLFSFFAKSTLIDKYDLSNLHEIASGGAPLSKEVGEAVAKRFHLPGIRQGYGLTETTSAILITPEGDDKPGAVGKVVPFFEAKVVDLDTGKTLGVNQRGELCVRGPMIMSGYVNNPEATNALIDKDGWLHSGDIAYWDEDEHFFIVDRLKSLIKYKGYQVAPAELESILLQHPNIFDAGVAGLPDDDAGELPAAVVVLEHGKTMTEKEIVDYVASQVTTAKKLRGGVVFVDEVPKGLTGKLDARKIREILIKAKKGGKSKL
row,SMILES,Potency
1,Cn1ccc(C(=O)N/N=C/c2ccccc2[N+](=O)[O-])n1,"inconclusive: 37.9 µM [inhibitor, single point]"
2,O=C1CCC(=O)N1c1ccc(-c2nc3ccccc3s2)cc1,active: 0.536 µM
3,Cc1ccc(S(=O)(=O)Nc2nc3ccccc3nc2Nc2cccc(S(=O)(=O)N3CCCC3)c2)cc1,"inconclusive: 30.1 µM [inhibitor, single point]"
4,COc1cn(CC(=O)Nc2cc(C)cc(C)c2)c(CN2CCCCC2)cc1=O,inactive
5,Cc1cc(Cl)c(OCCCn2ccnc2)c(Br)c1,inactive
6,CN1CCc2nc3sc(C(=O)c4ccc(F)cc4)c(N)c3cc2C1,"inconclusive: 30.1 µM [inhibitor, single point]"
7,COc1cc(OC)cc(-c2nnc(Nc3nc4c(F)cccc4s3)o2)c1,"inconclusive: 21.3 µM [inhibitor, single point]"
8,COc1cccc(-c2nnc(SCC(=O)N(C)C3CCCCC3)o2)c1,inactive
9,CN1C(=O)c2cccc3c(S(=O)(=O)Nc4cccc(C(=O)O)c4)ccc1c23,"inconclusive: 15.1 µM [inhibitor, partial curve, poor fit]"
10,CCOc1ccc(NC(=O)c2cc(SC)ccc2Cl)cc1,"inconclusive: 30.1 µM [inhibitor, partial curve, poor fit]"
11,Cc1cccc(NC(=S)N(CCN2CCOCC2)Cc2cc3cc4c(cc3[nH]c2=O)OCCO4)c1,inactive
12,O=C1c2ccccc2C(Nc2ccc3nc(-c4cccnc4)[nH]c3c2)N1Cc1ccco1 (centres undefined),"inconclusive: 26.9 µM [inhibitor, single point]"
13,CCCC(=O)Nc1sc(Cc2ccccc2)c(C)c1C(N)=O,"inconclusive: 21.3 µM [inhibitor, partial curve, poor fit]"
14,COc1ccc(CN(C)c2ccc(-c3nc(-c4ccc(OC)c(OC)c4)no3)cc2[N+](=O)[O-])cc1,"inconclusive: 13.5 µM [inhibitor, partial curve]"
15,CCOC(=O)N1CCN(C(=O)COCc2cc(-c3ccc4c(c3)OCO4)on2)CC1,"inconclusive: 30.1 µM [inhibitor, partial curve, poor fit]"
16,Cc1ccc(C2=NN(C(=O)CSc3nc4ncc(Cl)cc4[nH]3)C(c3ccco3)C2)cc1 (centres undefined),"inconclusive: 16.9 µM [inhibitor, partial curve]"
17,O=C(Nc1ccc(F)cc1F)NC1CCCCCCC1,active: 12 µM
18,N/N=C(/Cc1nc2ccccc2[nH]1)c1ccc([N+](=O)[O-])cc1,active: 12 µM
19,COc1ccc(N(C(=O)c2ccccc2C)S(=O)(=O)c2ccc(Cl)cc2)cc1,inactive
20,COc1ccc(CNc2nc3ccccc3n2C)c(O)c1,active: 8.49 µM
21,COc1ccc(OCCC(=O)NC2=NCCS2)cc1,inactive
22,Cc1ccc(/C=C2\SC(=S)N(CCC(=O)Nc3ccc(O)cc3)C2=O)cc1,inactive
23,CCSC1=N/C(=C\C=C2/Oc3ccccc3N2CC)C(=O)S1,"inconclusive: 37.9 µM [inhibitor, single point]"
24,CS(=O)(=O)c1ccc2c(c1)sc1nc(=O)c(/C=C3/C=CC(=O)C(O)=C3)c(N)n12,active: 4.78 µM
25,COc1ccc(-c2nn(-c3ccccc3)cc2/C=N/n2cnnc2)cc1OC,active: 19 µM

row,SMILES,Potency
1,c1ccc(-c2noc(-c3cccc4ccccc34)n2)nc1,active: 0.757 µM
2,Cc1ccccc1N=Nc1c(N)n[nH]c1N,"inconclusive: 26.9 µM [inhibitor, partial curve, poor fit]"
3,Cc1onc(-c2ccccc2Cl)c1C(=O)Oc1ccc(Cl)cc1Cl,"inconclusive: 37.9 µM [inhibitor, partial curve, poor fit]"
4,CC1(C)CC(=O)C/C(=N/NC(=O)CCCOc2ccc(Cl)cc2Cl)C1,"inconclusive: 37.9 µM [inhibitor, single point]"
5,COCn1c(COc2ccc3ccccc3c2)nc2ccccc21,active: 2.39 µM
6,O=C(O)c1cccc(S(=O)(=O)Nc2ccc3c(c2)CCC3)c1,"inconclusive: 26.9 µM [inhibitor, partial curve, poor fit]"
7,COc1ccc(CCN2C(=O)c3[nH]nc(-c4ccccc4O)c3C2c2cccc(O)c2)cc1OC (centres undefined),inactive
8,O=[N+]([O-])c1cc(Cl)cc(/C=N/NC(=S)Nc2cc(S(=O)(=O)N3CCOCC3)ccc2Cl)c1O,"inconclusive: 33.8 µM [inhibitor, partial curve, poor fit]"
9,Cc1ccc(S(=O)(=O)Oc2ccccc2/C=N/NC(=O)c2nn(C)cc2[N+](=O)[O-])cc1,"inconclusive: 26.9 µM [inhibitor, partial curve, poor fit]"
10,Cc1cccc(/C=C/C(=O)c2ccc(NC3=NCCCS3)cc2)c1,active: 13.5 µM
11,O=C1COc2ccc(C(=O)COC(=O)c3cc(S(=O)(=O)N4CCOCC4)ccc3F)cc2N1,"inconclusive: 26.9 µM [inhibitor, partial curve, poor fit]"
12,CC(=O)c1ccc(NC(=O)c2ccc([N+](=O)[O-])o2)cc1,"inconclusive: 37.9 µM [inhibitor, partial curve, poor fit]"
13,O=C(C1CCC1)N1CCCc2cc(S(=O)(=O)N3CCN(c4cccc(Cl)c4)CC3)ccc21,inactive
14,CC(C)CN(C(=O)COC(=O)CNC(=O)c1ccccc1)c1c(N)n(Cc2ccccc2)c(=O)[nH]c1=O,inactive
15,COc1cccc(-c2noc(CCC(=O)NCC3CCCO3)n2)c1 (centres undefined),inactive
16,O=C(NC1CCCCCC1)C(=O)NC1CC1,inactive
17,COc1ccc(OC)c(S(=O)(=O)Nc2ccc(O)c3ccccc23)c1,inactive
18,O=C(O)CCCn1c(=S)[nH]c2c(sc3ccc([N+](=O)[O-])cc32)c1=O,"inconclusive: 37.9 µM [inhibitor, single point]"
19,O=C(OCCN1CCCCC1)c1ccccc1Cl,"inconclusive: 26.9 µM [inhibitor, single point]"
20,COc1ccccc1NC(=O)CSc1nc(=O)n(CCN2CCOCC2)c2c1CCC2,inactive
21,Cc1cc(C)cc(OCC(=O)NNC(=O)CCC(=O)NCc2ccccc2)c1,"inconclusive: 21.3 µM [inhibitor, partial curve, poor fit]"
22,CCS(=O)(=O)n1nc(-c2ccc(Cl)cc2)nc1SCc1ccccc1,active: 15.1 µM
23,CC(=O)Nc1ccc(NC(=O)/C=C/c2ccccc2)cc1,"inconclusive: 30.1 µM [inhibitor, single point]"
24,COc1ccc(C2=NC(c3ccccc3)=Nc3ccc(C)cc3N2)cc1,"inconclusive: 13.5 µM [inhibitor, partial curve, poor fit]"
25,Cc1ccc(NC(=O)COc2cccc(C)c2C)cc1S(=O)(=O)N1CCCCCC1,inactive

row,SMILES,Potency
1,COCCNC(=O)C(=O)NCCN1CCNCC1,inactive
2,C=CCSc1ccc(S(=O)(=O)N2CCN(C)CC2)cn1,inactive
3,Cn1nnc2cc(NC(=O)Nc3cccc(C(F)(F)F)c3)ccc21,inactive
4,Cc1cc(C)cc(OCC(=O)Nc2ccc3c(c2)OCCO3)c1,"inconclusive: 19 µM [inhibitor, single point]"
5,CCCCNC(=S)Nc1ccc(C(F)(F)F)cc1,"inconclusive: 23.9 µM [inhibitor, single point]"
6,Cc1ccc(-n2c(C)cc(C(=O)CSc3nnnn3C)c2C)cc1,active: 2.69 µM
7,CC(=O)c1ccc(NC(=O)CCc2nnc3ccc(NCc4ccco4)nn23)cc1,"inconclusive: 21.3 µM [inhibitor, partial curve, poor fit]"
8,Cc1ccnc(NC(=O)COc2ccc(Cl)cc2)n1,active: 23.9 µM
9,c1ccn2c(SCc3ccc4c(c3)OCCO4)nnc2c1,"inconclusive: 26.9 µM [inhibitor, partial curve]"
10,COc1ccc(CNC(=O)/C=C/c2ccc(OCCCF)cc2)cc1,"inconclusive: 9.53 µM [inhibitor, partial curve, poor fit]"
11,Cc1ccc(-n2c(=O)c(C#N)cc3c(=O)n4ccccc4nc32)cc1,inactive
12,Cc1cc(OCC(=O)Nc2ccncc2)c(C)cc1Br,"inconclusive: 37.9 µM [inhibitor, single point]"
13,Cc1ccccc1CNC(=O)Cn1c(=O)c2cccn2c2cccnc21,inactive
14,CC(=O)c1sc(-c2ccc(Cl)cc2)nc1C,"inconclusive: 16.9 µM [inhibitor, partial curve]"
15,COc1ccc(C2CC(=O)c3cc(-c4nc(-c5cccc([N+](=O)[O-])c5)cs4)c(=O)n(-c4ccccc4N)c3C2)cc1 (centres undefined),inactive
16,S=c1nc(-c2csc3c2CCCC3)[nH][nH]1,"inconclusive: 30.1 µM [inhibitor, single point]"
17,COc1ccc2nc(/N=C(\N)NC(=O)Nc3ccccc3)nc(C)c2c1,active: 26.9 µM
18,Oc1ccc(Br)cc1C=Nc1cccn2cc(-c3ccccc3)nc12,"inconclusive: 37.9 µM [inhibitor, single point]"
19,COc1cc(NC(=O)COC(=O)Cc2ccc(-c3ccccc3)cc2)cc(OC)c1,"inconclusive: 30.1 µM [inhibitor, single point]"
20,CN1/C(=C\C(=O)c2cccs2)C(C)(C)c2ccccc21,"inconclusive: 16.9 µM [inhibitor, partial curve]"
21,CCN(c1ccc(OC)cc1)S(=O)(=O)c1ccc2[nH]c3c(c2c1)CCCCC3,inactive
22,CN(C)S(=O)(=O)c1ccc(NC(=O)COc2cccc3c2OC(C)(C)C3)cc1,inactive
23,CCS(=O)(=O)c1cc([N+](=O)[O-])c(Sc2ccccc2N)s1,active: 4.26 µM
24,CC(=O)Nc1cccc(NC(=O)CCc2ccccc2)c1,"inconclusive: 37.9 µM [inhibitor, partial curve, poor fit]"
